# This is one part of the list. The energies were worked out here from pooled read counts, against the library average; single values are noisy.
# Biological target: T1, Pho4 (S. cerevisiae) (UniProt P07270)
# T1 sequence: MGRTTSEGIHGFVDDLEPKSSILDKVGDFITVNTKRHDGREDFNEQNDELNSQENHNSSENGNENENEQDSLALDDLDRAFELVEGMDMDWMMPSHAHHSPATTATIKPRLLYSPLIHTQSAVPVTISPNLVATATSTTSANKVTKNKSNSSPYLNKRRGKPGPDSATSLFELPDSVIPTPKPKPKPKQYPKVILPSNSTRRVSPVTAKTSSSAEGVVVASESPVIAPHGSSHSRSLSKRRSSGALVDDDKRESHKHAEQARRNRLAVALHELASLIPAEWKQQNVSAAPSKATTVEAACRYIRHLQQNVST
# Experiment: relative binding free energy (BET-seq); higher = weaker binding
# Settings: reference: library average
row,Sequence,relative binding free energy [kcal/mol]
1,TTTGGCACGTGGCGAT,-0.13
2,AGTTGCACGTGAGGGC,0.18
3,TCTGGCACGTGCAGGT,-0.13
4,GATCACACGTGTGGTT,0.14
5,AGTGACACGTGTGTAT,0.06
6,TATCGCACGTGCGTTG,-0.08
7,GGTTGCACGTGTTCAG,-0.11
8,GAGGGCACGTGTTAGG,0.01
9,GGTTTCACGTGTTCTG,0.3
10,GTCGTCACGTGAGTTA,0.24
11,GGGTTCACGTGAGTAG,0.53
12,TACGACACGTGTGGGG,0.05
13,TAAAGCACGTGTTCTG,-0.04
14,TTTTACACGTGGTATA,0.03
15,CGGGGCACGTGGCTGT,-0.28
16,TTAAACACGTGTTAGG,0.03
17,ATAGTCACGTGAGTAG,0.33
18,AGTGTCACGTGGTTCT,0.01
19,ATGAACACGTGTTGAT,0.09
20,GGTCGCACGTGGTATT,-0.01
21,GTTGCCACGTGTGTAT,-0.07
22,TTGTTCACGTGCGATG,0.38
23,CGGGGCACGTGCGATT,0.01

row,Sequence,relative binding free energy [kcal/mol]
1,GATGCCACGTGGGCAG,-0.03
2,GCCAGCACGTGGGGTT,-0.16
3,GTTGGCACGTGGAATG,0.01
4,GACGTCACGTGGTTTA,-0.03
5,TCTGGCACGTGATCGT,0.08
6,TGTGACACGTGGAGTA,-0.13
7,TGTGACACGTGCGGTG,-0.05
8,AATGCCACGTGGGTAT,-0.28
9,GAAGTCACGTGCGGTG,0.24
10,AAAGTCACGTGAAGTT,0.27
11,GGCTACACGTGATGGT,0.21
12,TGTGGCACGTGCCGAG,-0.15
13,ATGTGCACGTGTCGTG,-0.08
14,AATGACACGTGGTGAT,-0.1
15,GTGTTCACGTGCAATG,0.23
16,GTCGGCACGTGGGTAT,-0.11
17,TTTAGCACGTGACAGT,0.14
18,TAATTCACGTGTAGCG,0.32
19,GCATTCACGTGATGGG,0.35
20,GGCATCACGTGTATGG,0.08
21,TGTTACACGTGTTTTT,0.16
22,CGTCTCACGTGTGAGG,0.33
23,GCTGTCACGTGAAGTT,0.42

row,Sequence,relative binding free energy [kcal/mol]
1,CATTGCACGTGAATGT,0.4
2,AGTATCACGTGGTTAG,0.06
3,GAGTGCACGTGACGGG,0.13
4,TGTTACACGTGTTGAT,0.15
5,ACGGTCACGTGTCGGG,0.07
6,GAAATCACGTGGGAGG,-0.07
7,TGCTACACGTGGTTTT,0.02
8,TTCTGCACGTGTATGG,0.09
9,GTGTTCACGTGGGTCA,0.07
10,GAGTACACGTGTTCGT,0.15
11,ATTTGCACGTGGTACA,-0.1
12,TATGTCACGTGCGGGT,0.03
13,GGTAACACGTGCGGTT,0.07
14,TCGTACACGTGATGAG,0.31
15,TGAACCACGTGTGGTG,0.01
16,CTTTTCACGTGTAAGG,0.08
17,TAATTCACGTGTGTAC,0.29
18,ATAGTCACGTGTCTAT,0.1
19,AATAGCACGTGGGTAA,-0.13
20,TTCTTCACGTGGGTAA,0.15
21,GGCAGCACGTGGCAGG,-0.22
22,TTTCGCACGTGGCGTG,-0.15
23,TGTAGCACGTGCGGCG,-0.11

row,Sequence,relative binding free energy [kcal/mol]
1,TTCTTCACGTGTAGAG,0.16
2,TTGTTCACGTGCGTGA,0.13
3,TTAGACACGTGGGCGG,-0.16
4,TGGTTCACGTGGCTAA,0.24
5,GCTCGCACGTGGGTTT,-0.11
6,AGGGACACGTGGCTTA,0.01
7,GGGGCCACGTGCTCGG,-0.11
8,ACGGGCACGTGTAAGT,0.07
9,ACGTGCACGTGTGTAA,-0.05
10,TTTTTCACGTGGTACG,0.22
11,GAGGACACGTGTAGAT,0.26
12,GGGTGCACGTGGGGCT,-0.11
13,CGGGACACGTGGTGGG,-0.03
14,AATGACACGTGTATAG,0.08
15,AATTGCACGTGGAATT,0.15
16,TTTTTCACGTGGGGGT,0.19
17,TTTAGCACGTGAGGAC,0.21
18,GTGGTCACGTGTTTAT,0.14
19,TGTAACACGTGTGGGC,0.17
20,TCATGCACGTGGTCGT,-0.14
21,AGTTGCACGTGGATGT,0
22,GTCTGCACGTGAGCGG,0.21
23,GGGTCCACGTGTTGAA,0.19

row,Sequence,relative binding free energy [kcal/mol]
1,TGTTTCACGTGCTCGG,0.21
2,AGTCACACGTGTTGGT,0.06
3,AGTGGCACGTGTTCGG,0
4,GTTAGCACGTGTGGGC,0.09
5,TTCATCACGTGCGTGG,0.12
6,TGTACCACGTGTGGTG,-0.02
7,TTTAACACGTGCTTTT,-0.1
8,TTTCTCACGTGTAGAT,0.32
9,TGGGCCACGTGGGATT,-0.04
10,GTGTCCACGTGGGGTA,-0.2
11,GGCGTCACGTGGAATG,0.21
12,ATGGACACGTGGATAT,0.13
13,ATGTTCACGTGTCTAT,0.18
14,AGTGTCACGTGGTATA,0.07
15,GTCAACACGTGTGGAG,0.08
16,TCGTACACGTGATTTA,0.26
17,TTCTGCACGTGGTTGG,-0.03
18,CAGTACACGTGGAGGT,0.1
19,AGCTTCACGTGGGAGG,0.09
20,TGAGGCACGTGTTCTT,-0.09
21,AAGGTCACGTGTCTGG,0.2
22,AGGTTCACGTGAATGA,0.4
23,GTATTCACGTGGCTTC,0.34

# From the BET-seq Pho4 binding data (Le et al. 2018)
